Experimental data as given in the RNAGym collection of RNA variant scans (doi:10.1073/pnas.2313332121).
Variants at the background level are over-represented here.

B1: TPR 5TU (parent)
chain: GGAUCUUCUCGAUCUAACAAAAAAGACAAAUCUGCCACAAAGCUUGAGAGCAUCUUCGGAUGCAGAGGCGGCAGCCUUCGGUGGCGCGAUAGCGCCAACGUUCUCAACUAUGACACGCAAAACGCGUGCUCCGUUGAAUGGAGUUUAUCAUG

Variants of: B1
Experiment: polymerase ribozyme fitness, log enrichment relative to wild type (log ratio); higher = more active; in vitro selection for triplet polymerase activity
In short: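 Input and output libraries were sequenced on Illumina after a single in vitro selection round, run in triplicate on PCR-built, transcribed mutant libraries of each subunit of a heterodimeric triplet polymerase ribozyme. Selection annealed libraries to a biotinylated primer, the partner subunit and triplets, incubated them frozen at −7 °C, then gel-excised extended constructs for streptavidin-bead capture and RT-PCR. Genotypes with ≥10 input reads and ≥1 read per output were kept. Fitness is the logarithm, taken in base 2, of genotype enrichment divided by wild-type enrichment, using inverse-variance-weighted replicate averages.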

Variant | polymerase ribozyme fitness (log ratio)
A23C C54U U55A G71A A122G | ≤ -4.2
A23U G84A U90G G126U G133A | ≤ -4.2
A23C G46A G70A C87A C103U A138G | ≤ -4.2
A23U G46A C93U | ≤ -4.2
A23U G42C G62U A147U | ≤ -4.2
A23U A40G U44A G50U | ≤ -4.2
A23C C32A G48U C75A A91C G92A C95A C99U U130A G133A | ≤ -4.2
A23G A39U C93U | ≤ -4.2
A23U C75G C96G A107G C116U | ≤ -4.2
A23G A30C C87G A89C C103G C108A | ≤ -4.2
A23C C32A U56A A60G C103A A110G G112C | ≤ -4.2
A23G A52U C57U G71U C79U C96A | ≤ -4.2
A23U G42C G83A | ≤ -4.2
A23C G25U C32A G50U C85G A113G U130A | ≤ -4.2
A23C A60G C96A C118U | ≤ -4.2
A23C G34U C43U A60G C132U | -4.02
A23U A41G C43U G71U C96A C118A U135A | ≤ -4.2
A23U G83A | ≤ -4.2
A23C U33C C105G U144C | ≤ -4.2
A23U C27G A37U C95G A110G G140C | -3.86
A23G C79G | ≤ -4.2
A23G G25A C85G U104C C132A U134A | ≤ -4.2
A23C A30C G50A A66G C96A A98U G128C | ≤ -4.2
A23C G25C | ≤ -4.2

Variant | polymerase ribozyme fitness (log ratio)
A23C C38A A40U A66C C93U | ≤ -4.2
A23C G58A A97U A119C U145A U146A | ≤ -4.2
A23G C35G | ≤ -4.2
A23C A39G C54U C57U G92A U101C A120U C129G G133U U148C | ≤ -4.2
A23G A39G G84A U145C | ≤ -4.2
A23U A29U C79G G81U C93G C149U | ≤ -4.2
A23C A60U G84U C105A | ≤ -4.2
A23U A60G C87A G92A U104G A106U C125A | ≤ -4.2
A23U G34A A40C A107U C132U G143C | ≤ -4.2
A23U C38U C114U G126A | ≤ -4.2
A23C A29U C38U C54A G84A A98U A106G A137U | ≤ -4.2
A23C A52C C57U A91G G143U | ≤ -4.2
A23G A49G G81U G88U U104C C116U | ≤ -4.2
A23U C57A A66G A107U A138G U146C | ≤ -4.2
A23U C75G G86U | ≤ -4.2
A23U C38A | ≤ -4.2
A23U A28G U55A G59A U78G G128A | -3.79
A23G G65U A89U G92U C96U | ≤ -4.2
A23U A30G A41C A47G U53G U56A C75A C93U C108G G133C G136A | ≤ -4.2
A23C C35A C57U C87G U146A | ≤ -4.2
A23G C85G C125G A142C | ≤ -4.2
A23C A40C G58U A97G C103G C132G | ≤ -4.2
A23C G58U C87G C108A U135C | ≤ -4.2
A23U A24C C51U U53A A98U | ≤ -4.2

Variant | polymerase ribozyme fitness (log ratio)
A23U C27U A40U A91C | ≤ -4.2
A23C A47G C96A | ≤ -4.2
A23G C38U U56A G58U C87G C118A | ≤ -4.2
A23U C79U G81C G83A C93U U135G | ≤ -4.2
A23U C87G A91G | ≤ -4.2
A23U A52C A60U C79A U102C A138G | ≤ -4.2
A23G C35U C72U A91G C103G A113G C114G | ≤ -4.2
A23G G50C G86C A89G G92U A97U G141C | ≤ -4.2
A23C G59C C79G C96G C132G U139G | ≤ -4.2
A23G C85G C96G | ≤ -4.2
A23U C43A C69G C99G U139A U144A | ≤ -4.2
A23U A30U C32U G84A A98G | ≤ -4.2
A22U G143C | -1.09
A23C U56A G86U A115G | ≤ -4.2
A23U C36G G92A C118U C123A | ≤ -4.2
A23C A24U C35U G50A C95U G143A | ≤ -4.2
A23C A40U C43U U45A U77G C93A | ≤ -4.2
A23U C27U A37U G126U | ≤ -4.2
A23G A26G A60C A91U C96U U139C U146C U148C | ≤ -4.2
A23U A47U U61A G81U G126U | ≤ -4.2
A23G C54A U56A C72U A73G | ≤ -4.2
A23U A28U U44A A47C G50A C93A A98G A115U A138C G140C C149A | ≤ -4.2
A23G A73G C95U G140A A142C | ≤ -4.2
A22U U82G C93A G124U C125U | -2.61

Variant | polymerase ribozyme fitness (log ratio)
A23U C43U G59C A60G G94C | ≤ -4.2
A23C U33G U78A G86A G133A | ≤ -4.2
A23C C51G | ≤ -4.2
A23G A28U U56A C114A A122U | ≤ -4.2
A23U G86A | ≤ -4.2
A23U C35A A41G U61G C75U | ≤ -4.2
A23G A37G U55A G68C G70U G83C C85A U144C U146C | ≤ -4.2
A23C C93G | ≤ -4.2
A22U U135C | -1.64
A23C A26G G59C U61A U146A | ≤ -4.2
A23G A47C A49C A52G A64C G92C | ≤ -4.2
A23G C27U A29C C32A C36G C85U C95A U127G | -4.14
A23U A28C G42C U44A A47G C79A G92A A142G | ≤ -4.2
A23U C57G A73U A98U | ≤ -4.2
A23C C35A C36G C54A A137G U148G | ≤ -4.2
A23U A66U A110U U145G | ≤ -4.2
A23U C87U U145G | ≤ -4.2
A23C A39C C51U C99A | ≤ -4.2
A23U C87U | ≤ -4.2
A23C A39G G70A G94A U102G U146G U151G | ≤ -4.2
A23G A47U G88U A107G | ≤ -4.2
A23G C63U G86A U102G C103G U139C U145A U148A | ≤ -4.2
A23G A41C U90G U145G | ≤ -4.2
A23C G46U A52C A64C G80C C114U | ≤ -4.2

Variant | polymerase ribozyme fitness (log ratio)
A23C G42A C96G U127A | ≤ -4.2
A23C A24U C57U G58A U61A C93G C103U C118U | ≤ -4.2
A23C G48C C85A U135C A150G | ≤ -4.2
A23U G86A C99G A137U | ≤ -4.2
A23C A37C A39C A66U A91C C99U | ≤ -4.2
A23C G42U A137U | ≤ -4.2
A23C A29C C38U C57G A64C G84U | ≤ -4.2
A23G U31C C103A U144C | ≤ -4.2
A23U G62C G71A C76U | ≤ -4.2
A23U A40C C57A G71A | ≤ -4.2
A22U U56A G84A G136C | -3.75
A23G G25C A40C G58A U61A G80C G88C | ≤ -4.2
A23U A30G G48C A73G C96U G133A U145A A150C | ≤ -4.2
A23G U130C A138U | -4.2
A23U G25U A37G G50A G88C C108U A121G G124U | ≤ -4.2
A23U A119G A120U G152A | ≤ -4.2
A23U G62C G84U C85G C132G | ≤ -4.2
A23G C27U U56A G62C C95A C149A | ≤ -4.2
A22U U56A C93G A98G C108A C114G U151A | ≤ -4.2
A23G G50C G92A A98G | ≤ -4.2
A23C C51A A113C A115C C116A | ≤ -4.2
A23U G46U U82C G86A G136A | ≤ -4.2
A23G G88C | ≤ -4.2
A23U A26U C51A A66U C85U U148C | ≤ -4.2

Variant | polymerase ribozyme fitness (log ratio)
A23U G46C G50C G58A C79G G88A | ≤ -4.2
A23G C57U | -2.27
A23U A39G A64C C87U C105G U134A | ≤ -4.2
A23G C38U G59U G112C | ≤ -4.2
A23U G48C C76G C79U C87G A89U U135G C149A | ≤ -4.2
A23U C38U A39C C57U G68A A121C | ≤ -4.2
A23U C99U | -3.84
A23G U90G G92A U127C G140U | ≤ -4.2
A23G A49U A60G A119U A120U A122C | -3.98
A23C U55C G71A C87G G94A C96A U111G | ≤ -4.2
A23G C87A | ≤ -4.2
A23U C72U G83A U109A U151G | ≤ -4.2
A23G C51A C93G C132U | ≤ -4.2
A23G G80C G81A | ≤ -4.2
A23U A52G A73U | ≤ -4.2
A23C A29G C38G G88U C116U G133C | ≤ -4.2
A23G A41C U90G A110G | ≤ -4.2
A23G C51A U55G C85G A91C C93G U127A G143A | ≤ -4.2
A23G G84A C129G C149G | ≤ -4.2
A23G A52G C57U C95A C96G U102G A107G G141A | ≤ -4.2
A23U A30U A41C C57U C79G C85G A121C A142C U145A | ≤ -4.2
A23C A28U U33G A49G G71U U78A C95A C96A G143C U148G | ≤ -4.2
A23U C51U U77G G136U | ≤ -4.2
A23G G25C G48A A91U | ≤ -4.2

Variant | polymerase ribozyme fitness (log ratio)
A23C A47G G67A U82A C108A | ≤ -4.2
A23U G25U U56C C93A C95G A120C G124U U148A | ≤ -4.2
A23G C38U U61A C69A C76U C96G C116U G117U | ≤ -4.2
A23U G88C A98U A150C | ≤ -4.2
A23G A24U C27G U55A G92U | -3.98
A23C A49G C93U U148C | ≤ -4.2
A23G U31A U44A G58C C96U | ≤ -4.2
A23U C35U C54A A121G G126A | ≤ -4.2
A23C A89G C93G U139A | ≤ -4.2
A23C G92U A122U | ≤ -4.2
A23G U55A G74A A110U A138C | ≤ -4.2
A23C U44C U55G C57A C93U U145A | ≤ -4.2
A23C C69G | ≤ -4.2
A23G C54G U77A C99G U109C C125A A138G | ≤ -4.2
A23U A41G | -3.88
A22U U55A A66C U77A C87A | ≤ -4.2
A23G G124C A147G A150G | ≤ -4.2
A23C A24G C96G C114U A120U | ≤ -4.2
A23G C54A A91C C108U C116A | ≤ -4.2
A23C U53A G80C | ≤ -4.2
A22U U45G C85G G86C G94C A147C | ≤ -4.2
A22U U31G C54G C85U U146C | -0.611
A23G C35U C51U C93G A121G A122U | ≤ -4.2
